Laboratory results: the supplement of paper PMC4604168 (melanoma cell lines)
This is one part of the list. Most values come without repeats; read them as rough.

Tests used:
Assay in all cases: cell count relative to DMSO control; melanoma cells; higher = more viable cells
Conditions in all cases: library dose: standard library concentration; 72 h; first compound 2 µM
[1] = test system: G361
[2] = test system: IPC-298
[3] = test system: IST-MEL1
[4] = test system: LB2518-MEL
[5] = test system: LOXIMVI
[6] = test system: MEL-HO
[7] = test system: MZ2-MEL
[8] = test system: MeWo
[9] = test system: RPMI7951
[10] = test system: RVH-421
[11] = test system: SkMel28
[12] = test system: SkMel2
[13] = test system: SkMel30
[14] = test system: SkMel5
[15] = test system: UACC257
[16] = test system: UACC62
[17] = test system: WM115
[18] = test system: WM1716
[19] = test system: WM1745
[20] = test system: WM3526
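Also: cells treated in 1,536-well plates, then fixed and DAPI-stained, with nuclei counted from automated high-throughput microscope images.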

Row | Compound | cell count [1] | cell count [2] | cell count [3] | cell count [4] | cell count [5] | cell count [6] | cell count [7] | cell count [8] | cell count [9] | cell count [10] | cell count [11] | cell count [12] | cell count [13] | cell count [14] | cell count [15] | cell count [16] | cell count [17] | cell count [18] | cell count [19] | cell count [20]
1 | CCCCCCCCCCCCCCCCCCOP(=O)([O-])OC1CC[N+](C)(C)CC1 [Perifosine] + C[C@@H](Oc1cc(-c2cnn(C3CCNCC3)c2)cnc1N)c1c(Cl)ccc(F)c1Cl [Crizotinib] (partner dose 1 µM) | 61.9% | 86.4% | 89% | 80.5% | 148% | 71.3% | 88.2% | 89% | 29.6% | 105% | 43% | 76.1% | 90.8% | 73% | 68.6% | 80.7% | 64.5% | 113% | 49.7% | 80.8%
2 | Cn1sc(=O)n(Cc2ccccc2)c1=O + CC(C)(C)c1cnc(CSc2cnc(NC(=O)C3CCNCC3)s2)o1 [SNS-032] (partner dose 0.05 µM) | 103% | 108% | 91.3% | 97.2% | 43% | 88.4% | 92.5% | 84.9% | 20.6% | 71.7% | 63.9% | 70.9% | 77.4% | 55.1% | 97.8% | 64.1% | 78.4% | 90.3% | 93.1% | 73.5%
3 | C[C@@H](N)c1ccc(C(=O)Nc2ccnc3[nH]ccc23)cc1 + OCCn1cc(-c2cnc3nnn(Cc4ccc5ncccc5c4)c3n2)cn1 [PF04217903] (partner dose 5 µM) | 77% | 91.5% | 82.4% | 77.8% | 84.9% | 77.2% | 66.3% | 76.4% | 61.9% | 34.6% | 93.3% | 116% | 97.4% | 62.9% | 70.1% | 79.5% | 94.1% | 53.9% | 49% | 119%
4 | C[C@@H](N)c1ccc(C(=O)Nc2ccnc3[nH]ccc23)cc1 + O=C(O)c1ccc2c(c1)nc(Nc1cccc(Cl)c1)c1ccncc12 [CX4945] (partner dose 2 µM) | 71.6% | 66.5% | 61.3% | 119% | 46.7% | 40.5% | 26.2% | 75.3% | 42.4% | 59.7% | 79.5% | 73.8% | 74% | 61% | 65.1% | 63.7% | 87.8% | 43% | 28.3% | 76%
5 | Cn1sc(=O)n(Cc2ccccc2)c1=O + O=C(CCCCCCC(=O)Nc1ccccc1)NO [vorinostat] (partner dose 0.4 µM) | 81.5% | 79% | 88.2% | 93.2% | 44.1% | 79.8% | 96.6% | 66.7% | 59% | 103% | 47.2% | 83.9% | 89.2% | 66.8% | 77.9% | 72.4% | 97.9% | 82.3% | 82.8% | 69.6%
6 | CCCCCCCCCCCCCCCCCCOP(=O)([O-])OC1CC[N+](C)(C)CC1 [Perifosine] + C[C@@H]1CCN(C(=O)CC#N)C[C@@H]1N(C)c1ncnc2[nH]ccc12 [CP690550] (partner dose 5 µM) | 85.7% | 97.4% | 98.1% | 79.4% | 108% | 76.9% | 118% | 106% | 22.1% | 99.6% | 72.8% | 104% | 78% | 114% | 118% | 111% | 85.2% | 71% | 68.8% | 90.3%
7 | Cn1sc(=O)n(Cc2ccccc2)c1=O + CO[C@H]1C[C@@H]2CC[C@@H](C)[C@@](O)(O2)C(=O)C(=O)N2CCCC[C@H]2C(=O)O[C@H]([C@H](C)C[C@@H]2CC[C@@H](OCCO)[C@H](OC)C2)CC(=O)[C@H](C)/C=C(\C)[C@@H](O)[C@@H](OC)C(=O)[C@H](C)C[C@H](C)/C=C/C=C/C=C/1C [everolimus] (partner dose 0.1 µM) | 67.5% | 69.1% | 87.6% | 82.6% | 88% | 71.5% | 98.3% | 86% | 78% | 77.5% | 47.7% | 80.2% | 83.9% | 74.2% | 108% | 74% | 73.2% | 77.9% | 96.1% | 109%
8 | CCCCCCCCCCCCCCCCCCOP(=O)([O-])OC1CC[N+](C)(C)CC1 [Perifosine] + C=CCNC1=C2C[C@@H](C)C[C@H](OC)[C@H](O)[C@@H](C)/C=C(\C)[C@H](OC(N)=O)[C@@H](OC)/C=C\C=C(/C)C(=O)NC(=CC1=O)C2=O [Tanespimycin] (partner dose 0.01 µM) | 78.7% | 95.4% | 68.9% | 82.5% | 88.8% | 89% | 125% | 76% | 3.49% | 68.7% | 55.2% | 92.2% | 80.5% | 68.6% | 81.2% | 56.6% | 24.5% | 73.7% | 60.2% | 91.6%
9 | CCCCCCCCCCCCCCCCCCOP(=O)([O-])OC1CC[N+](C)(C)CC1 [Perifosine] + COc1cc(Nc2ncc(F)c(Nc3ccc4c(n3)NC(=O)C(C)(C)O4)n2)cc(OC)c1OC [Tamatinib] (partner dose 2 µM) | 68% | 16.7% | 65.2% | 5.55% | 19.2% | 61.9% | 18.7% | 72.9% | 7.18% | 75.7% | 56.6% | 10.4% | 73.2% | 51.2% | 90.1% | 71.8% | 114% | 58.3% | 18.9% | 72.5%
10 | CCCCCCCCCCCCCCCCCCOP(=O)([O-])OC1CC[N+](C)(C)CC1 [Perifosine] + Cn1cnc2c(F)c(Nc3ccc(Br)cc3Cl)c(C(=O)NOCCO)cc21 [selumetinib] (partner dose 0.075 µM) | 81.2% | 54.8% | 79.2% | 62.8% | 90.2% | 81.7% | 82.3% | 95.1% | 24.9% | 73.2% | 59.4% | 69.3% | 45.2% | 84.2% | 114% | 61.5% | 74.8% | 79.5% | 90.6% | 71.3%
11 | C[C@@H](N)c1ccc(C(=O)Nc2ccnc3[nH]ccc23)cc1 + CC(C)(C)c1cnc(CSc2cnc(NC(=O)C3CCNCC3)s2)o1 [SNS-032] (partner dose 0.05 µM) | 90.6% | 101% | 78.4% | 84.3% | 79.3% | 76.8% | 62.7% | 76.3% | 16.6% | 39.1% | 71.3% | 62.7% | 81.4% | 55.5% | 68.2% | 65.8% | 104% | 44.1% | 48.4% | 97.1%
12 | CCCCCCCCCCCCCCCCCCOP(=O)([O-])OC1CC[N+](C)(C)CC1 [Perifosine] + C[C@@H](N)c1ccc(C(=O)Nc2ccnc3[nH]ccc23)cc1 [RKI983] (partner dose 2 µM) | 88.2% | 87.7% | 92.1% | 125% | 71.2% | 52% | 59% | 92.9% | 28.1% | 46% | 61.5% | 87.8% | 78.9% | 66.7% | 80% | 58.6% | 105% | 51.7% | 41.4% | 79.7%
13 | C[C@@H](N)c1ccc(C(=O)Nc2ccnc3[nH]ccc23)cc1 + NCC(=O)Nc1ccc(-n2nc(C(F)(F)F)cc2-c2ccc3c(ccc4ccccc43)c2)cc1 [OSU03012] (partner dose 5 µM) | 60.2% | 55% | 81.1% | 98.7% | 74.9% | 66.9% | 44.8% | 79.2% | 70.1% | 51% | 26.1% | 35.1% | 26.8% | 39.2% | 52.4% | 47% | 90.7% | 51.3% | 50% | 44.1%
14 | Cn1sc(=O)n(Cc2ccccc2)c1=O + Cn1cncc1[C@@](N)(c1ccc(Cl)cc1)c1ccc2c(c1)c(-c1cccc(Cl)c1)cc(=O)n2C [tipifarnib] (partner dose 0.05 µM) | 68.5% | 97.5% | 67.7% | 69.3% | 71.3% | 95.3% | 91.7% | 73.8% | 51.4% | 76% | 59.9% | 81.5% | 68.7% | 67.1% | 103% | 73.3% | 66.8% | 59.6% | 70.3% | 82.3%
15 | Cn1sc(=O)n(Cc2ccccc2)c1=O + CC(=O)c1c(C)c2cnc(Nc3ccc(N4CCNCC4)cn3)nc2n(C2CCCC2)c1=O [palbociclib] (partner dose 0.2 µM) | 66.6% | 74.2% | 75% | 60.7% | 53.2% | 79.2% | 70% | 73.3% | 63.7% | 68.9% | 42.5% | 68.6% | 56.4% | 70.7% | 74.4% | 69.4% | 82.7% | 48% | 85% | 53.2%
16 | Cn1sc(=O)n(Cc2ccccc2)c1=O + CO[C@@H]1[C@H](N(C)C(=O)c2ccccc2)C[C@H]2O[C@]1(C)n1c3ccccc3c3c4c(c5c6ccccc6n2c5c31)C(=O)NC4 [Midostaurin] (partner dose 0.4 µM) | 68% | 82.2% | 52.5% | 67.9% | 69.7% | 85.5% | 87.6% | 104% | 52.4% | 327% | 48.6% | 64.7% | 95.7% | 54.7% | 72.9% | 68.1% | 66% | 68.6% | 49.7% | 82.7%
17 | CCCCCCCCCCCCCCCCCCOP(=O)([O-])OC1CC[N+](C)(C)CC1 [Perifosine] + COCC[n+]1c2c(n(Cc3cnccn3)c1C)C(=O)c1ccccc1C2=O [YM155] (partner dose 0.002 µM) | 92.2% | 61.2% | 43.6% | 34.4% | 45.9% | 95% | 30.3% | 69.4% | 25.6% | 104% | 50.3% | 53% | 84.2% | 43.2% | 23.9% | 63.2% | 97.9% | 64.5% | 89.7% | 46.4%
18 | C[C@@H](N)c1ccc(C(=O)Nc2ccnc3[nH]ccc23)cc1 + COCC[n+]1c2c(n(Cc3cnccn3)c1C)C(=O)c1ccccc1C2=O [YM155] (partner dose 0.002 µM) | 102% | 54.4% | 46.4% | 25.1% | 106% | 63.2% | 16.3% | 26.2% | 29.2% | 43.7% | 48.4% | 20.5% | 46.2% | 30.1% | 28.2% | 56% | 88.6% | 34.2% | 69.9% | 56.9%
